Test results as given in a compilation of properties of binary mixtures (doi:10.1016/j.molliq.2022.119221).
The densities may have been worked out from excess volumes.

Experiment: xn = mol fraction of the nth substance listed
Details: 100 kPa

OCCO + CCCC[n+]1ccn(C)c1.O=S(=O)([N-]S(=O)(=O)C(F)(F)F)C(F)(F)F
mass density (293.15 K, x2 = 0.1): 1237.3 kg/m3
mass density (293.15 K, x2 = 0.2997): 1347.9 kg/m3
mass density (293.15 K, x2 = 0.4993): 1392.5 kg/m3
mass density (293.15 K, x2 = 0.6007): 1405.5 kg/m3
mass density (293.15 K, x2 = 0.7003): 1412.9 kg/m3
mass density (293.15 K, x2 = 0.7993): 1421 kg/m3
mass density (293.15 K, x2 = 0.9): 1431 kg/m3
mass density (298.15 K, x2 = 0.1): 1233.1 kg/m3
mass density (298.15 K, x2 = 0.2997): 1343 kg/m3
mass density (298.15 K, x2 = 0.4015): 1370.9 kg/m3
mass density (298.15 K, x2 = 0.4993): 1387.6 kg/m3
mass density (298.15 K, x2 = 0.6007): 1400.5 kg/m3
mass density (298.15 K, x2 = 0.7003): 1408 kg/m3
mass density (298.15 K, x2 = 0.7993): 1416 kg/m3
mass density (298.15 K, x2 = 0.9): 1426.2 kg/m3
mass density (303.15 K, x2 = 0.1): 1229.3 kg/m3
mass density (303.15 K, x2 = 0.2002): 1300 kg/m3
mass density (303.15 K, x2 = 0.2997): 1338.1 kg/m3
mass density (303.15 K, x2 = 0.4015): 1365.9 kg/m3
mass density (303.15 K, x2 = 0.4993): 1382.7 kg/m3
mass density (303.15 K, x2 = 0.6007): 1395.8 kg/m3
mass density (303.15 K, x2 = 0.7003): 1403.1 kg/m3
mass density (303.15 K, x2 = 0.7993): 1411.1 kg/m3
mass density (303.15 K, x2 = 0.9): 1421.4 kg/m3
mass density (308.15 K, x2 = 0.1): 1224.3 kg/m3
mass density (308.15 K, x2 = 0.2002): 1294.8 kg/m3
mass density (308.15 K, x2 = 0.4015): 1361.1 kg/m3
mass density (308.15 K, x2 = 0.4993): 1377.8 kg/m3
mass density (308.15 K, x2 = 0.6007): 1391 kg/m3
mass density (308.15 K, x2 = 0.7993): 1406.6 kg/m3
mass density (308.15 K, x2 = 0.9): 1416.6 kg/m3
mass density (313.15 K, x2 = 0.1): 1219.6 kg/m3
mass density (313.15 K, x2 = 0.2002): 1289.8 kg/m3
mass density (313.15 K, x2 = 0.4015): 1356.3 kg/m3
mass density (313.15 K, x2 = 0.4993): 1373.1 kg/m3
mass density (313.15 K, x2 = 0.6007): 1386.2 kg/m3
mass density (313.15 K, x2 = 0.7003): 1393.3 kg/m3
mass density (313.15 K, x2 = 0.7993): 1401.8 kg/m3
mass density (313.15 K, x2 = 0.9): 1411.4 kg/m3
mass density (318.15 K, x2 = 0.1): 1215.8 kg/m3
mass density (318.15 K, x2 = 0.2002): 1284.9 kg/m3
mass density (318.15 K, x2 = 0.4015): 1351.4 kg/m3
mass density (318.15 K, x2 = 0.4993): 1368.3 kg/m3
mass density (318.15 K, x2 = 0.6007): 1381.5 kg/m3
mass density (318.15 K, x2 = 0.7993): 1396.7 kg/m3
mass density (318.15 K, x2 = 0.9): 1407 kg/m3
mass density (323.15 K, x2 = 0.1): 1212.1 kg/m3
mass density (323.15 K, x2 = 0.2002): 1279.8 kg/m3
mass density (323.15 K, x2 = 0.4015): 1347.4 kg/m3
mass density (323.15 K, x2 = 0.4993): 1363.8 kg/m3
mass density (323.15 K, x2 = 0.6007): 1376.8 kg/m3
mass density (323.15 K, x2 = 0.7003): 1383.8 kg/m3
mass density (328.15 K, x2 = 0.1): 1208.2 kg/m3
mass density (328.15 K, x2 = 0.2002): 1274.8 kg/m3
mass density (328.15 K, x2 = 0.2997): 1313.1 kg/m3
mass density (328.15 K, x2 = 0.4993): 1360.1 kg/m3
mass density (328.15 K, x2 = 0.7003): 1379.1 kg/m3
mass density (328.15 K, x2 = 0.7993): 1387.3 kg/m3
mass density (333.15 K, x2 = 0.1): 1204.6 kg/m3
mass density (333.15 K, x2 = 0.2997): 1309.1 kg/m3
mass density (333.15 K, x2 = 0.4015): 1337.9 kg/m3
mass density (333.15 K, x2 = 0.4993): 1356.1 kg/m3
mass density (333.15 K, x2 = 0.6007): 1368 kg/m3
mass density (333.15 K, x2 = 0.7003): 1374.5 kg/m3
mass density (333.15 K, x2 = 0.9): 1392.6 kg/m3
mass density (338.15 K, x2 = 0.1): 1199.1 kg/m3
mass density (338.15 K, x2 = 0.2002): 1264.2 kg/m3
mass density (338.15 K, x2 = 0.2997): 1304.9 kg/m3
mass density (338.15 K, x2 = 0.4015): 1333.3 kg/m3
mass density (338.15 K, x2 = 0.4993): 1351.6 kg/m3
mass density (338.15 K, x2 = 0.6007): 1364.1 kg/m3
mass density (338.15 K, x2 = 0.7003): 1370 kg/m3
mass density (338.15 K, x2 = 0.9): 1387.7 kg/m3
